PMC7251095, “Cryo-EM structures provide insight into how E. coli F1Fo ATP synthase accommodates symmetry mismatch” (Nature Communications, 2020)

Legend:
[1] = biological target: T1, E. coli F1Fo ATP synthase subunit a (E. coli, UniProt P0AB98 1-271); assay: cryo-EM structure; detergent-solubilized (digitonin) cysteine free E. coli F1Fo ATP synthase at 11 μM with 10 mM MgADP, 22 °C for 30 s before freezing; 300 kV; nine sub-states and a Fo focused map of Sub-state 3A; settings: both partners purified
T1 construct: ATP synthase subunit a of E. coli, as it stands in the cysteine free F1Fo ATP synthase (all cysteines of the enzyme substituted with alanine); The first four residues were not resolved in the maps; also called stator subunit a; Fo stator
T1 sequence (P0AB98 whole entry): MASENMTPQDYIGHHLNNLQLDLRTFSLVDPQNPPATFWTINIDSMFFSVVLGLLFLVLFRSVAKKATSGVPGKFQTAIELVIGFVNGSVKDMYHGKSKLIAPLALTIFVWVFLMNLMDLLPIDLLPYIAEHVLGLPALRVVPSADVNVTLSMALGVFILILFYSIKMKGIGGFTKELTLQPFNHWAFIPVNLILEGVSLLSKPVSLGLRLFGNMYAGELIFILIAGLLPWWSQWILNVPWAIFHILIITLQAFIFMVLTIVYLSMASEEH

[2] = biological target: the molecule itself; assay: as above

B1: E. coli F1Fo ATP synthase subunit c (natural protein)
chain: MENLNMDLLYMAAAVMMGLAAIGAAIGIGILGGKFLEGAARQPDLIPLLRTQFFIVMGLVDAIPMIAVGLGLYVMFAVA
notes: ATP synthase subunit c of E. coli, as it stands in the cysteine free F1Fo ATP synthase (all cysteines of the enzyme substituted with alanine); Ten copies form the c-ring of the Fo motor; also called c-ring; c10 ring
B1 was tested, and the binding result [1] was “binds” and the “stoichiometry N” value [2] was 10.
